Reference: paper PMC2680354 (Molecular cell, 2008)

Target: Arp2/3 complex (UniProt P61158)
Experiment: fluorescence polarisation

B1: GST-N-WASP VCA (other)
chain: [about 200 residues not shown]HQVPASSGNKAALLDQIREGAQLKKVEQNSRPVSCSGRDALLDQIRQGIQLKSVSDGQESTPPTPAPTSGIVGALMEVMQKRSKAIHSSDEDEDDDDEEDFQDDDEWED
fold increase in affinity of the GST-VCA dimer over the VCA monomer: 180 fold
